# Assay results published in a collection of fitness landscapes (doi:10.1016/j.celrep.2020.107928).
# In all, about 81,000 sequences were measured (“one-hybrid fitness for binding parS DNA”: median about -0.17, highest 2% from about 0.51 on). Some of the results follow.
# B1: Caulobacter ParB omega fusion; a variant is named by its letters at X, in order, B8GW30 (parent)
# chain: MESVVVGEPGMSEGRRGLGRGLSALLGEVDAAPAQAPGEQLGGSREAPIEILQRNPDQPRRTFREEDLEDLSNSIREKGVLQPILVRPSPDTAGEYQIVAGERAWRAAQRAGLKTVPIMVRELDDLAVLEIGIIENVQRADLNVLEEALSYKVLMEKFERTQENIAQTIGKSXSHVANXMRLLXLPDEVQSYLVSGELTAXHARAIAAAADPVALAKQIIEGGLSVRETEALARKAPNLSAGKSKGGRPPRVKDTDTQALESDLSSVLGLDVSIDHRGSTGTLTITYATLEQLDDLCNRLTRGI
# Variants of: B1
# Experiment: one-hybrid fitness for binding parS DNA (scaled: cognate 1, non-cognate 0); higher = stronger binding
# Conditions: with parS DNA site
# In short: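 Bacterial one-hybrid selection in E. coli USO rpoZ- hisB- pyrF- with a HIS3 reporter carrying the site 19 bp from the promoter, screening Caulobacter ParB libraries with four specificity codons randomised (NNS). Cells grew 48 hours at 37°C on M9-minus-histidine plus 0.1 mM IPTG and 5 mM 3-AT. Plasmids before and after selection were Illumina-sequenced, three replicate libraries pooled, and variants under 10 reads dropped. Fitness is the log change in variant-to-wild-type read ratio, rescaled to cognate 1, non-cognate 0.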
row,Variant,one-hybrid fitness for binding parS DNA
1,RSPY,≤ 0.2
2,RGRP,≤ 0.2
3,DGLW,≤ 0.2
4,RNLV,≤ 0.2
5,AHAE,≤ 0.2
6,RNHI,≤ 0.2
7,VCKG,≤ 0.2
8,FVAR,≤ 0.2
9,PSVQ,≤ 0.2
10,RCAC,1.02
11,RSDV,≤ 0.2
12,PLNP,≤ 0.2
13,CTCG,≤ 0.2
14,EMFL,≤ 0.2
15,LKNR,≤ 0.2
16,QQDT,≤ 0.2
17,AARM,≤ 0.2
18,WKRT,≤ 0.2
19,QHAV,≤ 0.2
20,VEPR,≤ 0.2
21,SYSE,≤ 0.2
22,EMEG,≤ 0.2
23,GLRI,≤ 0.2
24,DPAI,≤ 0.2
25,QRTP,≤ 0.2
26,YLVF,≤ 0.2

row,Variant,one-hybrid fitness for binding parS DNA
1,MVLS,≤ 0.2
2,VDFE,≤ 0.2
3,ELCR,≤ 0.2
4,HVLN,≤ 0.2
5,YKQC,≤ 0.2
6,APLN,≤ 0.2
7,NLRN,≤ 0.2
8,YINR,≤ 0.2
9,GAHY,≤ 0.2
10,DVIF,≤ 0.2
11,RHHD,≤ 0.2
12,QDAC,≤ 0.2
13,DPHS,≤ 0.2
14,STHN,≤ 0.2
15,WTND,≤ 0.2
16,PMLT,≤ 0.2
17,SFQV,≤ 0.2
18,KMGK,≤ 0.2
19,RRKP,0.338
20,RQDV,≤ 0.2
21,CQHC,≤ 0.2
22,LGGT,≤ 0.2
23,AIYA,≤ 0.2
24,DRYT,≤ 0.2
25,PHGA,≤ 0.2
26,TETA,≤ 0.2

row,Variant,one-hybrid fitness for binding parS DNA
1,SYTF,≤ 0.2
2,CLTS,≤ 0.2
3,AMRV,≤ 0.2
4,PNAR,≤ 0.2
5,VTWY,≤ 0.2
6,APRD,≤ 0.2
7,FYGS,≤ 0.2
8,QPPY,≤ 0.2
9,LYWG,≤ 0.2
10,FTQE,≤ 0.2
11,NYTT,≤ 0.2
12,PPGA,≤ 0.2
13,QMKS,≤ 0.2
14,LLSM,≤ 0.2
15,LSKL,≤ 0.2
16,KRWM,≤ 0.2
17,PIEV,≤ 0.2
18,HRYS,0.43
19,QRPW,≤ 0.2
20,SAGK,≤ 0.2
21,NYPM,≤ 0.2
22,RWPW,≤ 0.2
23,RGQL,≤ 0.2
24,APTH,≤ 0.2
25,RTMV,≤ 0.2
26,WHVC,≤ 0.2

row,Variant,one-hybrid fitness for binding parS DNA
1,YDSW,≤ 0.2
2,AQKK,≤ 0.2
3,RHQH,≤ 0.2
4,GCFS,≤ 0.2
5,TAAL,≤ 0.2
6,NVWT,≤ 0.2
7,TTKN,≤ 0.2
8,ILAP,≤ 0.2
9,KGRT,≤ 0.2
10,PGIN,≤ 0.2
11,ILLD,≤ 0.2
12,FGAC,≤ 0.2
13,CIGV,≤ 0.2
14,AAAS,≤ 0.2
15,LTKQ,≤ 0.2
16,KTTK,≤ 0.2
17,NFDE,≤ 0.2
18,PPLQ,≤ 0.2
19,ATRT,≤ 0.2
20,KQLL,≤ 0.2
21,DFGS,≤ 0.2
22,SSVH,≤ 0.2
23,VGCG,≤ 0.2
24,RYMH,≤ 0.2
25,TKSV,≤ 0.2
26,IMCS,≤ 0.2

row,Variant,one-hybrid fitness for binding parS DNA
1,ASMV,≤ 0.2
2,QVSF,≤ 0.2
3,QLNG,≤ 0.2
4,KRRP,≤ 0.2
5,YKKC,≤ 0.2
6,AINK,≤ 0.2
7,RNIP,≤ 0.2
8,HSDI,≤ 0.2
9,GNTW,≤ 0.2
10,QTHE,≤ 0.2
11,HGLL,≤ 0.2
12,LRRK,≤ 0.2
13,SCWR,≤ 0.2
14,RSCG,0.966
15,YGEP,≤ 0.2
16,QQRC,≤ 0.2
17,QPQE,≤ 0.2
18,ARHG,≤ 0.2
19,PACE,≤ 0.2
20,NEIL,≤ 0.2
21,CTWT,≤ 0.2
22,LFGT,≤ 0.2
23,LGRT,≤ 0.2
24,YSIW,≤ 0.2
25,YIGV,≤ 0.2
26,NGSC,≤ 0.2

row,Variant,one-hybrid fitness for binding parS DNA
1,MPGA,≤ 0.2
2,KHSL,≤ 0.2
3,TVEW,≤ 0.2
4,QGPV,≤ 0.2
5,QHPE,≤ 0.2
6,LEEV,≤ 0.2
7,RVSH,≤ 0.2
8,GVDR,≤ 0.2
9,ACEH,≤ 0.2
10,SDTI,≤ 0.2
11,NYGR,≤ 0.2
12,AFQR,≤ 0.2
13,ATKC,≤ 0.2
14,LRWV,≤ 0.2
15,RMEA,0.495
16,HGLP,≤ 0.2
17,MHNR,≤ 0.2
18,DVNN,≤ 0.2
19,CGCG,≤ 0.2
20,SRSF,≤ 0.2
21,IWSG,≤ 0.2
22,RPTI,≤ 0.2
23,SYVR,≤ 0.2
